# Test results: the supplement of paper PMC3334620
# The full ranking holds about 33,000 sequences; the median of “E-score (-0.5 to 0.5)” is about -0.054, and the highest 2% start at about 0.39. The list shows a part of the results.
# Biological target: Ylr278c (UniProt Q05854)
# Experiment: PBM E-score (8-mer binding enrichment) (E-score (-0.5 to 0.5)); higher = stronger / more preferred TF binding; most listed sequences are background and not binding sites
# Conditions: protein concentration: 200 nM; construct: GST-DNA-binding domain
# In short: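 Full-length yeast transcription factors or their DNA-binding domains, GST-tagged and expressed with PURExpress, were applied at about 100-200 nM to universal all-10-mer Agilent arrays. These arrays had been made double-stranded by primer extension on fresh or once-stripped slides. Detection used fluorescent anti-GST, normalisation used masliner, and E-scores for ungapped eight-base words pooled with reverse complements came from the Universal PBM Analysis Suite.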
row,Sequence,PBM E-score
1,ATTCCCCG,0.375
2,CACTGCTG,-0.189
3,CATTTGAG,-0.0532
4,AATTTCAT,-0.128
5,CGGGACCA,0.0437
6,CAACAGTA,-0.07
7,AATATTCA,-0.0797
8,AAGTCCCA,-0.102
9,CTGAGTGA,0.187
10,AGTAGATC,0.0105
11,GTTTTCGA,-0.128
12,CATTGGTC,-0.0858
13,CACAAATC,-0.0387
14,AACGAAAG,-0.107
15,GGGGTGGA,0.0686
16,AAAGTTCC,0.173
17,GAGCCGGC,0.325
18,TCATGAAA,-0.0379
19,AGTTTATG,-0.128
20,CACCTCTC,-0.0621
21,CTAAGATA,-0.0917
22,CAGTTCGG,0.269
23,ATGTGTCG,-0.0696
24,CGTGAGCC,-0.0777
25,AGCAATAC,-0.0703

row,Sequence,PBM E-score
1,ACTTTCCG,0.321
2,ATCAATTA,0.0539
3,ACCTTGGG,-0.056
4,AGGTGGCG,-0.114
5,TGTGTGAA,-0.121
6,TCTACAAA,-0.217
7,AATGTAGT,-0.0362
8,ACTTGAGA,-0.232
9,AATCTTAT,0.0117
10,AACATGTA,-0.00363
11,CAGGAATC,-0.035
12,TATAATGA,-0.0749
13,AGAACCAG,-0.0294
14,ATTAAGTG,-0.106
15,GGTTCAAA,0.0582
16,CGCACCAG,0.0559
17,CGTATCCC,0.048
18,GCGCGGGA,0.248
19,GCGCCACC,-0.163
20,ATTTCATC,0.166
21,GCGTTACA,0.00694
22,ATCTGTGG,-0.141
23,GCAGCAGA,-0.169
24,GTTTTCTA,-0.0305
25,ATAATCCG,0.376

row,Sequence,PBM E-score
1,AGTACTTC,0.134
2,GCCCTGTA,-0.071
3,GAAAAAGA,0.0891
4,GCAAAAAA,0.0913
5,ATTCCGGA,0.46
6,CAACGCTC,-0.195
7,CAGAGGAG,-0.243
8,CCTTGGCC,-0.306
9,GCATATTA,-0.0157
10,GCGTTTCC,0.201
11,AGTCGTAG,-0.174
12,CTACCTTA,0.00722
13,TACAGGAA,0.0451
14,GAGTTCTA,-0.0512
15,ATGATTCG,0.0401
16,AGCGTGAT,-0.116
17,GTACGTCA,-0.24
18,CCTTTCAC,-0.133
19,ATTGGCCG,0.208
20,CAGACGCC,-0.0403
21,AGGCGAAG,-0.195
22,CCGCCCAA,0.113
23,ATTTGCAG,0.0717
24,GCGTTCCA,-0.1
25,ACATTGCT,-0.203

row,Sequence,PBM E-score
1,CGGTCCTA,0.155
2,TGGGGAAA,0.0549
3,AATTCTAA,-0.0445
4,CTTGTTGA,-0.0886
5,AAACATCG,-0.126
6,CATAAAAA,-0.0962
7,CCTAAATC,0.0832
8,GGATTCAA,-0.137
9,CAGCATAA,0.0515
10,TAGCCACA,-0.289
11,TCTTCCAA,-0.0225
12,GACGAGGC,0.0299
13,AACACCTT,-0.117
14,AGTAGACT,-0.0796
15,GAATACTA,0.0108
16,ATAGGTTA,-0.0689
17,GACGTTCC,0.218
18,CGTGCGGA,0.279
19,AATCCGTG,0.26
20,CAGGAGAA,0.0274
21,GGTACACA,-0.0855
22,CACAGATG,-0.139
23,CTAGGTTC,0.0862
24,ACACCGCG,0.216
25,CCTGTGAG,-0.271

row,Sequence,PBM E-score
1,CCTTATCA,-0.188
2,GAACCGGC,0.283
3,ACATTCTC,-0.0548
4,ACCCAGAC,-0.0988
5,GCCCATCC,-0.108
6,AATCGGCT,0.286
7,CAGGGCAG,-0.225
8,AGTATTCG,-0.0379
9,CAAAGTTC,0.0218
10,CTTATTAA,0.0334
11,CGGCGGCC,0.322
12,TACTAACA,-0.187
13,CATTGTGC,-0.0596
14,CAGGTGCG,0.155
15,AGTCGTGC,-0.245
16,AGGTCCCC,0.019
17,AGTTGCAC,-0.113
18,ATGTTAGC,-0.0158
19,ACTCAATC,-0.0725
20,TAGTTAGA,-0.0721
21,ACGTTCGC,-0.0937
22,AGAACGGC,0.0608
23,CCATGAAC,-0.0376
24,TATGGACA,0.0133
25,ACTGGCTC,-0.0994

row,Sequence,PBM E-score
1,AATCAACG,-0.105
2,GGTTGTAC,0.103
3,CAAAAATA,0.122
4,ATGAACGC,0.00098
5,GTCGAAAC,-0.0444
6,ATAGCGTC,-0.075
7,GCCACGCC,-0.0772
8,CACTTCGA,-0.174
9,CTACAGGC,-0.0765
10,CCAAATCC,0.148
11,GCGAGGGA,-0.056
12,ACATTTCC,0.261
13,ACATGTTG,-0.0903
14,GATTCAGC,0.0113
15,TCCTATAA,-0.0721
16,CAATAATG,-0.111
17,GAAGACAA,-0.0383
18,TGAAGAAA,-0.0302
19,GCCTAGAA,-0.217
20,CTATCCGA,0.0513
21,CCACATCC,0.0271
22,CAGACTGG,-0.271
23,GGCACAAC,-0.0546
24,CAAAGGTA,-0.144
25,TGTTCCAA,-0.31

row,Sequence,PBM E-score
1,CCTCACAC,-0.296
2,ACTACTGC,-0.0745
3,CGAGCTCC,0.256
4,GTTCCTAA,-0.0001
5,GCATGAGA,-0.151
6,CCAACTCA,-0.093
7,ACATTGAC,-0.179
8,AGGGGTGA,-0.235
9,CAAACGGG,0.14
10,GAACCGTA,-0.0428
11,CCGCAGCG,0.299
12,GCGTAAAC,0.11
13,CTCGCTGA,-0.0594
14,ACTTTGGC,0.0656
15,ACTATCGA,-0.169
16,ATAAAACG,0.155
17,AATCCGAA,0.39
18,GCATTTCA,0.0527
19,GATATGGA,0.181
20,AGGTTCGG,0.3
21,ATACATTA,-0.128
22,AGGCGACA,-0.185
